From PubChem BioAssay AID485294 (National Center for Advancing Translational Sciences (NCATS), 2010)
The whole screen tested about 370,000 compounds, of which about 150 (0.041%) were called active. The shares of active, inactive and inconclusive entries below differ from those in the screen. Calls follow the shape of the dose curve; as a rule, active = well fitted inhibition curve with a large enough effect; inconclusive = small, poorly fitted or top-dose-only effect; inactive = flat fitted curve, though single readings scatter. No potency is given beside an inconclusive call; the fits are too rough.

Biological target: Beta-lactamase (Escherichia coli (strain K12)) (UniProt P00811)
Sequence of UniProt P00811 (P00811 whole entry, looked up): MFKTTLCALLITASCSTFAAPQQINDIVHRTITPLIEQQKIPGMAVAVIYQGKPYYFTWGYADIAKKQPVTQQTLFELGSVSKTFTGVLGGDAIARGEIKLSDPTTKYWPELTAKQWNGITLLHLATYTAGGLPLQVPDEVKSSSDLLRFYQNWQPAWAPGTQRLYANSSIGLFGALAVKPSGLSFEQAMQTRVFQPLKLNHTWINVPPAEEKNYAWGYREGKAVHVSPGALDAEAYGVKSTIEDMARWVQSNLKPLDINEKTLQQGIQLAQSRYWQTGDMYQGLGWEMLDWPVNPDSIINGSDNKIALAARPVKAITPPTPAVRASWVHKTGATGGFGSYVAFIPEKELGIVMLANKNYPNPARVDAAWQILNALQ
Experiment: qHTS Inhibitors of AmpC Beta-Lactamase (assay with detergent); also: nearly all actives have a fitted effect of over 25% in size;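 as to activity change, negative = inhibition: 0% = no-compound wells and -100% = no-enzyme wells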
Conditions: AmpC hydrolysis of nitrocefin, absorbance 480 nm, 0.01% Triton; activity change, negative = inhibition: at 114 µM (top of the series)
Outline: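 20 mM phosphate pH 7.0 + 0.01% (detergent screen) or 0.0001% Triton X-100; 5.3 nM AmpC reagent; cpd preinc 15 min RT; nitrocefin (800 uM stock) to start; A480 q20 s × 4 min; Activity was normalised to no-enzyme and no-compound control wells.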
Potency is read from the fitted curve at half-maximal effect; tags tell the direction and shape of the fitted curve.

Row | SMILES | Potency | activity change, negative = inhibition
1 | CC(C)CNC(=O)NC(=O)COc1ncnc2sccc12 | inconclusive [inhibitor, full curve] | –
2 | Cc1ccc(C2CC(c3cccc(C)c3)n3nc(N)nc3N2)cc1 (configuration not stated) | inconclusive [inhibitor, full curve, poor fit] | –
3 | Cc1ccc2c(c1)CCCN2CC(=O)Nc1cccc(S(=O)(=O)N2CCCC2)c1 | inconclusive [inhibitor, full curve, poor fit] | –
4 | Clc1cc2cccnc2c2ncccc12 | – | inactive: 0.892%
5 | CC1(C)Cc2c(C#N)c(OCC(=O)c3ccc(Cl)cc3)nc(-c3ccco3)c2CO1 | inconclusive [inhibitor, full curve] | –
6 | COc1ccc(C2(C(=O)Nc3ccccc3)CCOCC2)cc1 | inconclusive [inhibitor, partial curve] | –
7 | CCOc1ccc(CCN2CN(CC)CNC2=S)cc1OCC | inconclusive [inhibitor, single point] | –
8 | CCO[C@@H]1OC(C(=O)O)=C[C@H](c2ccc(C(F)(F)F)cc2)[C@H]1CCCO | – | inactive: 2.39%
9 | Cc1ccc2c(c1)c1c(n2CC(O)CNC(CO)(CO)CO)CCCC1 (configuration not stated) | inconclusive [inhibitor, single point] | –
10 | Cc1ccc2cc(C3CC(c4ccco4)=NN3S(=O)(=O)c3ccccc3)c(Cl)nc2c1 (configuration not stated) | inconclusive [inhibitor, full curve, poor fit] | –
11 | Cc1ccc(NC(=O)Cn2nc(Cc3ccncc3)c3ccccc3c2=O)c(Cl)c1 | – | inactive: 5.37%
12 | COc1ccc(CCn2c(C)ccc2C)cc1OC | inconclusive [inhibitor, full curve, poor fit] | –
13 | O=c1[nH]c(=O)n(C2CCCCCC2)c(O)c1C=NCCCN1CCOCC1 | inconclusive [inhibitor, full curve] | –
14 | S=C(c1cn(CCOc2ccccc2)c2ccccc12)N1CCCC1 | – | inactive: -0.288%
15 | CC(C)Oc1ccc2c3c(c(=O)oc2c1)CCC3 | inconclusive [inhibitor, full curve, poor fit] | –
16 | O=C(COc1ccccc1O)N1CCN(C(=O)c2ccco2)CC1 | inconclusive [inhibitor, full curve, poor fit] | –
17 | c1cnc(-c2noc(CN3CCN(C4C5CC6CC(C5)CC4C6)CC3)n2)cn1 (configuration not stated) | – | inactive: -2.11%
18 | NC(=O)COC(=O)c1cc(-c2ccco2)nc2ccccc12 | – | inactive: -4.77%
19 | CCCOc1ccc(/C=N/Nc2ccccc2[N+](=O)[O-])c(OCCC)c1 | inconclusive [inhibitor, full curve] | –
20 | COc1cccc(NC(=O)CN(C)C(=O)c2c(C)nn(Cc3ccc(C)cc3)c2Cl)c1 | inconclusive [inhibitor, partial curve, poor fit] | –
21 | Cc1c(Br)c(=O)oc2c(Br)c(O)ccc12 | – | inactive: 5.39%

Row | SMILES | Potency | activity change, negative = inhibition
22 | Cc1ccc(-n2ncc3c(=O)n(CC(=O)NC4CCCCC4)cnc32)cc1 | inconclusive [inhibitor, full curve, poor fit] | –
23 | O=C(NNc1ccccc1[N+](=O)[O-])Nc1cccc(Cl)c1 | inconclusive [inhibitor, single point] | –
24 | CCCOc1ccc(N2C(=O)CC(N3CCN(c4nc5ccccc5s4)CC3)C2=O)cc1 (configuration not stated) | – | inactive: -14.7%
25 | CC1CCN(C(=O)CSc2nnc(Cc3cccn3C)n2-c2ccc(F)cc2)CC1 | inconclusive [inhibitor, full curve, poor fit] | –
26 | COc1ccc2nc(/C(C#N)=C\c3ccc(C(=O)O)cc3)[nH]c2c1 | – | inactive: 0.843%
27 | CCOc1ccc(Oc2ccc(NS(=O)(=O)c3cc(C(=O)O)ccc3Cl)cc2)cc1 | inconclusive [inhibitor, full curve, poor fit] | –
28 | CN(CC(=O)Nc1ccc(Cl)c(C(F)(F)F)c1)C(=O)Cc1n[nH]c(=O)c2ccccc12 | – | inactive: -15.7%
29 | CC(C)CC(C(=O)NC(C)(C)C)N(Cc1cccs1)C(=O)c1snc(C(N)=O)c1N (configuration not stated) | inconclusive [inhibitor, full curve] | –
30 | C(=N\n1cnnc1)/c1ccc(N2CCOCC2)cc1 | inconclusive [inhibitor, full curve, poor fit] | –
31 | Cc1ccc(C2C(C(N)=S)=C(N)OC3=C2C(=O)CC(C)(C)C3)cc1 (configuration not stated) | inconclusive [inhibitor, partial curve] | –
32 | COc1ccc(NC(=O)c2ccc(NC(=O)c3nc4nc(C)cc(C)n4n3)cc2)cc1 | inconclusive [inhibitor, full curve] | –
33 | COc1ccc(S(=O)(=O)N(C)CC(=O)N2CCN(C)CC2)cc1C | inconclusive [inhibitor, single point] | –
34 | COc1cccc(N=Nc2ccc(O)c3ncccc23)c1 | inconclusive [inhibitor, partial curve, poor fit] | –
35 | S=C(Nc1ccc(Cl)cc1)NN1CCOCC1 | inconclusive [inhibitor, partial curve, poor fit] | –
36 | Cc1cc(C)c(NC(=O)CNC(=O)c2cc([N+](=O)[O-])ccc2N2CCOCC2)c(C)c1 | inconclusive [inhibitor, single point] | –
37 | COC(=O)C(C)N(C(=O)c1ccc(C(=O)c2ccccc2)cc1)c1c(C)cccc1C (configuration not stated) | inconclusive [inhibitor, single point] | –
38 | Cc1ccc(-c2ccc(/C=C3\C(=O)ON=C3c3ccccc3)o2)c([N+](=O)[O-])c1 | inconclusive [inhibitor, full curve] | –
39 | Cc1cccc(OCC(=O)Nc2nc3ccc([N+](=O)[O-])cc3s2)c1 | inconclusive [inhibitor, partial curve] | –
40 | CCOC(=O)N1CCN(C(=O)CN(c2ccc(Oc3ccccc3)cc2)S(C)(=O)=O)CC1 | inconclusive [inhibitor, full curve, poor fit] | –
41 | C/C(=N\N=C(/N)SC1CC(=O)N(c2ccc(Br)cc2)C1=O)c1cccs1 (configuration not stated) | – | inactive: 0.745%
42 | CCOc1ccc(Br)cc1C(=O)Nc1ccc(C(=O)NCC(C)C)cc1 | inconclusive [inhibitor, full curve, poor fit] | –
